Measured values: patent US10299477B2 (priority 2015, dated 2019)

Experiments:
Type in all cases: in vivo
Plasmopara viticola = assay: Test Example G: Downy mildew on vine; details: for Test G (control value class): 250 ppm spray; for Test G (control value class, downy mildew on vine): 250 ppm, sprayed 2.5 ml/pot before inoculation; for Test G control value (downy mildew on vine): 250 ppm spray (2.5 ml/pot), preventive, control value class
Text: [Test Example G] Downy Mildew on Vine
Seeds of a test plant (grape variety: Neomuscat) were planted followed by cultivating until three to four first leaves appeared. […] After the sprayed dilutions were dried, a zoosporangia suspension (1-2×10^4 zoosporangia/ml) of Plasmopara viticola was inoculated to the plants by spraying.

[1] = test system: Blumeria graminis f sp. hordei; assay: Test Example D: Powdery mildew on barley; details: for Test D (control value class, powdery mildew on barley): in vivo; for Test D control value (powdery mildew on barley): preventive, control value class
Text: [Test Example D] Powdery Mildew on Barley
After the sprayed dilutions were dried, conidia of Blumeria graminis f sp. hordei were inoculated to the plants by shaking off.

Alternaia brassicicola = assay: Test Example C: Alternaria sooty spot on cabbage; details: for Test C (control value class): Alternaria sooty spot on cabbage; for Test C (control value class, Alternaria sooty spot on cabbage): in vivo; for Test C control value (Alternaria sooty spot on cabbage): preventive, control value class
Text: [Test Example C] Alternaria Sooty Spot on Cabbage
Seeds of a test plant (cabbage variety: Shikidori) were planted followed by cultivating until the cotyledons extended.

Botrytis cinerea = assay: Test Example B: Gray mold on tomato; details: for Test B (control value class, gray mold on tomato): in vivo; for Test B control value (gray mold on tomato): preventive, control value class
Text: [Test Example B] Gray Mold on Tomato
Seeds of a test plant (tomato variety: Oogata Fukuju) were planted followed by cultivating until three to five first leaves (true leaves) appeared.

Puccinia recondita = assay: Test Example E: Brown rust on wheat; details: for Test E (control value class, brown rust on wheat): in vivo; for Test E control value (brown rust on wheat): preventive, control value class
Text: [Test Example E] Brown Rust on Wheat

[2] = Downy mildew on vine, 2.5 ml/pot, evaluated 7-10 days after inoculation
[3] = Powdery mildew on barley, control value=100{1-(n/3)}
[4] = Gray mold on tomato, control value=100{1-(n/3)}
[5] = Brown rust on wheat, control value=100{1-(n/3)}
[6] = downy mildew on vine, Plasmopara viticola, 7-10 days after inoculation
[7] = powdery mildew on barley, 250 ppm spray
[8] = gray mold on tomato, Botrytis cinerea, 250 ppm spray
[9] = brown rust on wheat, Puccinia recondita, 250 ppm spray
[10] = evaluated 7-10 days after inoculation

CCn1c(-c2c(F)cc(F)cc2F)c(-c2ccccc2)cc(Br)c1=O [Compound 774]
Test G (control value class) (Plasmopara viticola; [2]): L (L shows 50% or less of control values) | Test D (control value class) [1, 3]: H (H shows more than 50% of control values) | Test C (control value class) (Alternaia brassicicola; control value=100{1-(n/3)}): H (H shows more than 50% of control values) | Test B (control value class) (Botrytis cinerea; [4]): H (H shows more than 50% of control values) | Test E (control value class) (Puccinia recondita; [5]): H (H shows more than 50% of control values)

CCn1c(-c2c(F)cccc2F)c(-c2cc(Cl)ccc2F)ccc1=O [Compound 522]
Test G (control value class) (Plasmopara viticola; [6]): L (L shows 50% or less of control values) | Test D (control value class) [1, 7]: L (L shows 50% or less of control values) | Test C (control value class) (Alternaia brassicicola; 250 ppm spray): H (H shows more than 50% of control values) | Test B (control value class) (Botrytis cinerea; [8]): H (H shows more than 50% of control values) | Test E (control value class) (Puccinia recondita; [9]): L (L shows 50% or less of control values)

CCOc1cc(F)c(-c2c(-c3cc(OC)cc(OC)c3Cl)ccc(=O)n2CC)c(F)c1 [Compound 378]
Test G (control value class) (Plasmopara viticola; [6]): H (H shows more than 50% of control values) | Test D (control value class) [1, 7]: H (H shows more than 50% of control values) | Test C (control value class) (Alternaia brassicicola; 250 ppm spray): H (H shows more than 50% of control values) | Test B (control value class) (Botrytis cinerea; [8]): H (H shows more than 50% of control values) | Test E (control value class) (Puccinia recondita; [9]): H (H shows more than 50% of control values)

O=c1c(Cl)cc(-c2cc(F)cc(F)c2Cl)c(-c2c(F)cc(F)cc2F)n1CC(F)F [Compound 608]
Test G (control value class, downy mildew on vine) (Plasmopara viticola; [10]): L (L shows 50% or less of control values) | Test D (control value class, powdery mildew on barley) [1]: H (H shows more than 50% of control values) | Test C (control value class, Alternaria sooty spot on cabbage) (Alternaia brassicicola): H (H shows more than 50% of control values) | Test B (control value class, gray mold on tomato) (Botrytis cinerea): H (H shows more than 50% of control values) | Test E (control value class, brown rust on wheat) (Puccinia recondita): H (H shows more than 50% of control values)

Cn1c(-c2c(F)cc(F)cc2F)c(-c2ccc(F)cc2Cl)ccc1=O [Compound 576]
Test G (control value class, downy mildew on vine) (Plasmopara viticola; [10]): H (H shows more than 50% of control values) | Test D (control value class, powdery mildew on barley) [1]: H (H shows more than 50% of control values) | Test C (control value class, Alternaria sooty spot on cabbage) (Alternaia brassicicola): H (H shows more than 50% of control values) | Test B (control value class, gray mold on tomato) (Botrytis cinerea): H (H shows more than 50% of control values) | Test E (control value class, brown rust on wheat) (Puccinia recondita): H (H shows more than 50% of control values)

Cn1c(-c2c(F)cccc2F)c(-c2cc(F)cc(F)c2F)cc(Cl)c1=O [Compound 442]
Test G (control value class) (Plasmopara viticola; [6]): L (L shows 50% or less of control values) | Test D (control value class) [1, 7]: L (L shows 50% or less of control values) | Test C (control value class) (Alternaia brassicicola; 250 ppm spray): H (H shows more than 50% of control values) | Test B (control value class) (Botrytis cinerea; [8]): H (H shows more than 50% of control values) | Test E (control value class) (Puccinia recondita; [9]): H (H shows more than 50% of control values)

Cc1cc(-c2cc(F)ccc2F)c(-c2c(F)cccc2F)n(C)c1=O [Compound 499]
Test G (control value class) (Plasmopara viticola; [6]): H (H shows more than 50% of control values) | Test D (control value class) [1, 7]: H (H shows more than 50% of control values) | Test C (control value class) (Alternaia brassicicola; 250 ppm spray): H (H shows more than 50% of control values) | Test B (control value class) (Botrytis cinerea; [8]): H (H shows more than 50% of control values) | Test E (control value class) (Puccinia recondita; [9]): H (H shows more than 50% of control values)

COc1cc(F)c(-c2c(-c3ccc(F)cc3Cl)cc(Cl)c(=O)n2C)c(F)c1 [Compound 600]
Test G (control value class, downy mildew on vine) (Plasmopara viticola; [10]): H (H shows more than 50% of control values) | Test D (control value class, powdery mildew on barley) [1]: H (H shows more than 50% of control values) | Test C (control value class, Alternaria sooty spot on cabbage) (Alternaia brassicicola): H (H shows more than 50% of control values) | Test B (control value class, gray mold on tomato) (Botrytis cinerea): H (H shows more than 50% of control values) | Test E (control value class, brown rust on wheat) (Puccinia recondita): H (H shows more than 50% of control values)

CCn1c(-c2c(F)cccc2F)c(-c2c(F)c(F)c(F)c(F)c2F)cc(Cl)c1=O [Compound 372]
Test G control value (downy mildew on vine) (Plasmopara viticola; 7-10 days after inoculation): L (L shows 50% or less of control values) | Test D control value (powdery mildew on barley) ([1]; 250 ppm spray): L (L shows 50% or less of control values) | Test C control value (Alternaria sooty spot on cabbage) (Alternaia brassicicola; 250 ppm spray): H (H shows more than 50% of control values) | Test B control value (gray mold on tomato) (Botrytis cinerea; 250 ppm spray): L (L shows 50% or less of control values) | Test E control value (brown rust on wheat) (Puccinia recondita; 250 ppm spray): H (H shows more than 50% of control values)

CCn1c(-c2c(F)cc(F)cc2F)c(-c2cc(F)c(F)cc2F)ccc1=O [Compound 635]
Test G (control value class, downy mildew on vine) (Plasmopara viticola; [10]): L (L shows 50% or less of control values) | Test D (control value class, powdery mildew on barley) [1]: H (H shows more than 50% of control values) | Test C (control value class, Alternaria sooty spot on cabbage) (Alternaia brassicicola): H (H shows more than 50% of control values) | Test B (control value class, gray mold on tomato) (Botrytis cinerea): H (H shows more than 50% of control values) | Test E (control value class, brown rust on wheat) (Puccinia recondita): H (H shows more than 50% of control values)

CCn1c(-c2c(F)cc(Br)cc2F)c(-c2cc(F)ccc2Cl)cc(Cl)c1=O [Compound 706]
Test G (control value class, downy mildew on vine) (Plasmopara viticola; [10]): L (L shows 50% or less of control values) | Test D (control value class, powdery mildew on barley) [1]: L (L shows 50% or less of control values) | Test C (control value class, Alternaria sooty spot on cabbage) (Alternaia brassicicola): L (L shows 50% or less of control values) | Test B (control value class, gray mold on tomato) (Botrytis cinerea): L (L shows 50% or less of control values) | Test E (control value class, brown rust on wheat) (Puccinia recondita): H (H shows more than 50% of control values)

CCOCOc1ccc(Cl)c(-c2ccc(=O)n(C)c2-c2c(F)cccc2F)c1 [Compound 326]
Test G control value (downy mildew on vine) (Plasmopara viticola; 7-10 days after inoculation): H (H shows more than 50% of control values) | Test D control value (powdery mildew on barley) ([1]; 250 ppm spray): H (H shows more than 50% of control values) | Test C control value (Alternaria sooty spot on cabbage) (Alternaia brassicicola; 250 ppm spray): H (H shows more than 50% of control values) | Test B control value (gray mold on tomato) (Botrytis cinerea; 250 ppm spray): H (H shows more than 50% of control values) | Test E control value (brown rust on wheat) (Puccinia recondita; 250 ppm spray): H (H shows more than 50% of control values)

COc1cc(F)c(-c2c(-c3ccccc3F)cc(Br)c(=O)n2C)c(F)c1 [Compound 572]
Test G (control value class, downy mildew on vine) (Plasmopara viticola; [10]): H (H shows more than 50% of control values) | Test D (control value class, powdery mildew on barley) [1]: H (H shows more than 50% of control values) | Test C (control value class, Alternaria sooty spot on cabbage) (Alternaia brassicicola): H (H shows more than 50% of control values) | Test B (control value class, gray mold on tomato) (Botrytis cinerea): H (H shows more than 50% of control values) | Test E (control value class, brown rust on wheat) (Puccinia recondita): H (H shows more than 50% of control values)

CCOc1ccc(Cl)c(-c2cc(Cl)c(=O)n(CC)c2-c2c(F)cc(OC)cc2F)c1 [Compound 796]
Test G (control value class) (Plasmopara viticola; [2]): H (H shows more than 50% of control values) | Test D (control value class) [1, 3]: H (H shows more than 50% of control values) | Test C (control value class) (Alternaia brassicicola; control value=100{1-(n/3)}): H (H shows more than 50% of control values) | Test B (control value class) (Botrytis cinerea; [4]): H (H shows more than 50% of control values) | Test E (control value class) (Puccinia recondita; [5]): H (H shows more than 50% of control values)

COc1cc(F)c(-c2c(-c3cc(F)ccc3Cl)cc(C)c(=O)n2C)c(F)c1 [Compound 759]
Test G (control value class) (Plasmopara viticola; [2]): L (L shows 50% or less of control values) | Test D (control value class) [1, 3]: H (H shows more than 50% of control values) | Test C (control value class) (Alternaia brassicicola; control value=100{1-(n/3)}): H (H shows more than 50% of control values) | Test B (control value class) (Botrytis cinerea; [4]): H (H shows more than 50% of control values) | Test E (control value class) (Puccinia recondita; [5]): H (H shows more than 50% of control values)
